Source: the supplement of paper PMC8728848
Some of the results follow.

Key:
Assay in all cases: glycan array binding signal (z-score within array); higher = stronger binding
Details in all cases: glycan notation: IUPAC condensed, linker removed
[1] = target: Neu5Ac(a2-6)Gal(b1-4)GlcNAc(b1-6)[Gal(b1-3)]GalNAc
Method in brief: (§1)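 The binding signal is a Z-score computed within each array and averaged over linkers. Arrays of the same protein sequence at different concentrations or buffers were also averaged together. Data originate from 3228 arrays in the Consortium for Functional Glycomics database, kept only where the protein sequence was available.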

[2] = target: Neu5Ac(a2-6)Gal(b1-4)GlcNAc6S
Method in brief: as §1

Neu5Ac(a2-6)GalNAc = target: Neu5Ac(a2-6)GalNAc
Method in brief: as §1

[3] = target: Neu5Ac(a2-6)GalNAc(b1-4)GlcNAc
Method in brief: as §1

[4] = target: Neu5Ac(a2-6)GalNAc(b1-4)GlcNAc6S
Method in brief: as §1

[5] = target: Neu5Ac(a2-6)GlcNAc(b1-4)GlcNAc
Method in brief: as §1

[6] = target: Neu5Ac(a2-6)GlcNAc(b1-4)GlcNAc(b1-4)GlcNAc
Method in brief: as §1

Neu5Ac(a2-8)Neu5Ac = target: Neu5Ac(a2-8)Neu5Ac
Method in brief: as §1

[7] = target: Neu5Ac(a2-8)Neu5Ac(a2-3)Gal(b1-3)GalNAc(b1-4)[Neu5Ac(a2-3)]Gal(b1-4)Glc
Method in brief: as §1

[8] = target: Neu5Ac(a2-8)Neu5Ac(a2-3)Gal(b1-3)GalNAc(b1-4)[Neu5Ac(a2-8)Neu5Ac(a2-3)]Gal(b1-4)Glc
Method in brief: as §1

[9] = target: Neu5Ac(a2-8)Neu5Ac(a2-3)Gal(b1-4)Glc
Method in brief: as §1

[10] = target: Neu5Ac(a2-8)Neu5Ac(a2-3)Gal(b1-4)GlcNAc
Method in brief: as §1

[11] = target: Neu5Ac(a2-8)Neu5Ac(a2-3)[Gal(b1-3)GalNAc(b1-4)]Gal(b1-4)Glc
Method in brief: as §1

[12] = target: Neu5Ac(a2-8)Neu5Ac(a2-3)[GalNAc(b1-4)]Gal(b1-4)Glc
Method in brief: as §1

[13] = target: Neu5Ac(a2-8)Neu5Ac(a2-8)Neu5Ac
Method in brief: as §1

[14] = target: Neu5Ac(a2-8)Neu5Ac(a2-8)Neu5Ac(a2-3)Gal(b1-4)Glc
Method in brief: as §1

[15] = target: Neu5Ac(a2-8)Neu5Ac(a2-8)Neu5Ac(a2-3)[Gal(b1-3)GalNAc(b1-4)]Gal(b1-4)Glc
Method in brief: as §1

[16] = target: Neu5Ac(a2-8)Neu5Ac(a2-8)Neu5Ac(a2-3)[GalNAc(b1-4)]Gal(b1-4)Glc
Method in brief: as §1

[17] = target: Neu5Ac(a2-8)Neu5Ac(a2-8)Neu5Ac(a2-8)Neu5Ac(a2-3)[GalNAc(b1-4)]Gal(b1-4)Glc
Method in brief: as §1

[18] = target: Neu5Ac(a2-8)Neu5Gc(a2-3)Gal(b1-4)GlcNAc
Method in brief: as §1

[19] = target: Neu5Ac(b2-6)Gal(b1-4)GlcNAc
Method in brief: as §1

Neu5Ac(b2-6)GalNAc = target: Neu5Ac(b2-6)GalNAc
Method in brief: as §1

[20] = target: Neu5Ac9Ac(a2-3)Gal(b1-3)GlcNAc
Method in brief: as §1

[21] = target: Neu5Ac9Ac(a2-3)Gal(b1-4)GlcNAc
Method in brief: as §1

[22] = target: Neu5Ac9Ac(a2-6)Gal(b1-4)GlcNAc
Method in brief: as §1

[23] = target: Neu5Gc(a2-3)Gal(b1-3)GlcNAc
Method in brief: as §1

[24] = target: Neu5Gc(a2-3)Gal(b1-3)[Fuc(a1-4)]GlcNAc
Method in brief: as §1

Neu5Gc(a2-3)Gal(b1-4)Glc = target: Neu5Gc(a2-3)Gal(b1-4)Glc
Method in brief: as §1

[25] = target: Neu5Gc(a2-3)Gal(b1-4)GlcNAc
Method in brief: as §1

[26] = target: Neu5Gc(a2-3)Gal(b1-4)GlcNAc(b1-3)Gal(b1-4)GlcNAc(b1-2)Man(a1-3)[Neu5Gc(a2-3)Gal(b1-4)GlcNAc(b1-3)Gal(b1-4)GlcNAc(b1-2)Man(a1-6)]Man(b1-4)GlcNAc(b1-4)GlcNAc
Method in brief: as §1

[27] = target: Neu5Gc(a2-3)Gal(b1-4)[Fuc(a1-3)]GlcNAc
Method in brief: as §1

[28] = target: Neu5Gc(a2-6)Gal(b1-4)GlcNAc
Method in brief: as §1

Neu5Gc(a2-6)GalNAc = target: Neu5Gc(a2-6)GalNAc
Method in brief: as §1

[29] = target: Neu5Gc(a2-8)Neu5Ac(a2-3)Gal(b1-4)GlcNAc
Method in brief: as §1

[30] = target: Neu5Gc(a2-8)Neu5Gc(a2-3)Gal(b1-4)GlcNAc
Method in brief: as §1

[31] = target: Neu5Gc(a2-8)Neu5Gc(a2-3)Gal(b1-4)GlcNAc(b1-3)Gal(b1-4)GlcNAc
Method in brief: as §1

[32] = target: Neu5Gc(a2-8)Neu5Gc(a2-6)Gal(b1-4)GlcNAc
Method in brief: as §1

[33] = target: Neu5Gc(b2-6)Gal(b1-4)GlcNAc
Method in brief: as §1

B1: Pwp2 (Candida glabrata) (protein)
chain: MGSSHHHHHHSSGLVPRGSHMASKNPVELNNVCTFPNDYGRIPGFTVLVGRLGLLISASDYKELLRYPGAFLIATQDTMTTSPNFELTGFPFFTGLYGLTVFPLDLLVELRGYFVPPNSGQYTFTLSDSDDAAIIFLGNPSAFPCGDLQNWPKPSEEDITVTDHLFPSRTLYLIEGVAYPMRIAYYNGIGAGRLNAAFIDPSGTRHTNWEGYIWQYDPCSTCTYS
- glycan array binding signal (z-score) [1]: 3.56
- glycan array binding signal (z-score) [2]: -0.426
- glycan array binding signal (z-score) (Neu5Ac(a2-6)GalNAc): -0.452
- glycan array binding signal (z-score) [3]: -0.834
- glycan array binding signal (z-score) [4]: 4.86
- glycan array binding signal (z-score) [5]: 0.409
- glycan array binding signal (z-score) [6]: -0.21
- glycan array binding signal (z-score) (Neu5Ac(a2-8)Neu5Ac): -0.04
- glycan array binding signal (z-score) [7]: -0.089
- glycan array binding signal (z-score) [8]: -0.378
- glycan array binding signal (z-score) [9]: -0.445
- glycan array binding signal (z-score) [10]: -1.06
- glycan array binding signal (z-score) [11]: -0.631
- glycan array binding signal (z-score) [12]: -0.052
- glycan array binding signal (z-score) [13]: -0.203
- glycan array binding signal (z-score) [14]: -0.715
- glycan array binding signal (z-score) [15]: -0.048
- glycan array binding signal (z-score) [16]: 0.537
- glycan array binding signal (z-score) [17]: 0.044
- glycan array binding signal (z-score) [18]: -0.583
- glycan array binding signal (z-score) [19]: -0.294
- glycan array binding signal (z-score) (Neu5Ac(b2-6)GalNAc): -0.425
- glycan array binding signal (z-score) [20]: 1.52
- glycan array binding signal (z-score) [21]: -0.494
- glycan array binding signal (z-score) [22]: -0.276
- glycan array binding signal (z-score) [23]: -1.55
- glycan array binding signal (z-score) [24]: -0.072
- glycan array binding signal (z-score) (Neu5Gc(a2-3)Gal(b1-4)Glc): -0.331
- glycan array binding signal (z-score) [25]: 0.982
- glycan array binding signal (z-score) [26]: 1.41
- glycan array binding signal (z-score) [27]: 0.026
- glycan array binding signal (z-score) [28]: -0.523
- glycan array binding signal (z-score) (Neu5Gc(a2-6)GalNAc): 0.773
- glycan array binding signal (z-score) [29]: -0.437
- glycan array binding signal (z-score) [30]: -0.432
- glycan array binding signal (z-score) [31]: -0.367
- glycan array binding signal (z-score) [32]: -0.447
- glycan array binding signal (z-score) [33]: 0.257
